The labels stand for the following.
B1: LINE1-mini (parent)
chain: GGCAGAGCUCAACACAGCGUGGCAAAGUGGCUGUGGCUAGACUGCC

The source gives no read counts; variants with many changes may rest on few reads.

The variants in the series derive from B1. Nature of the series: self-cleavage, relative activity (ratio to wild type); higher = more cleavage; in vitro, sequencing; the parent is a self-cleaving ribozyme.
For the variant GGCAGAGAUCAACACAGCGUGGUAAAGUGGCUGUGACUAGACUGCC [C8A C23U G36A], the self-cleavage was determined as 0.45.
Take GGCAGAGAUCAACACAGCCUGGCAACGUGGCUGUGGCUAGACUGAC [C8A G19C A26C C45A]: the self-cleavage stood at 0.
For GGCAGAGGUCCACACAGCGUGGCAAAGUGGCUGUGGUUUGACUGCC [C8G A11C C37U A39U] the value was 0.01.
For GGCAGAGAUCAACACAGGCCGGCAAAGUGGCUGUGGCUAGACUGCC [C8A C18G G19C U20C] the value was 0.26.
As to GGCAGAGAACAACACAGAGUGGCAAUGUGGCUGUGGCUAGACUGAC [C8A U9A C18A A26U C45A], the self-cleavage turned out to be 0.36.
For GGCAGAGAACAACACAGCAUGGAAAAGUGGCUGUGGCUAGACUGCC [C8A U9A G19A C23A] the value was 0.09; for GGCAGAGAUCAACACAGGGUGGCAAAGUGGCUGUGCCUAGACUGCC [C8A C18G G36C], 0.23; for GGCAGAGAUCAACACAGCGUGGUAAAGUAGCUGUGGCUAGACUGCC [C8A C23U G29A], 0.22.
For GGCAGAGGUCAGUACAGCGUGGCAAAGUUGCUGUGGCUAGACUGCC [C8G A12G C13U G29U] the value was 0; for GGCAGAGAUCAACACAGCUCGGCAAAGUGAAUGUGGCUAGACUGCC [C8A G19U U20C G30A C31A], 0.24.
To GGCAGAGAUCAACACAACGUGGCAAAGUGGCUGUGGCUUGACUGCC [C8A G17A A39U] belongs 0.15; to GGCAGAGAUCAACACAGCGUGGCAAAGUGGCUGUGGCUAUACUGAC [C8A G40U C45A], 0.16; to GGCAGAGAGCAACAUAGCGGGGCAAAGAGGCUGUGGCUAGGCUGCC [C8A U9G C15U U20G U28A A41G], 0.01.
For the variant GGCAGAGAGCAACACAGCGUGGCGAAGUGGCUGCGGCUAGACUGCC [C8A U9G A24G U34C], the self-cleavage worked out at 0.03.
To GGCAGAGAUCAACACAGCGUGGUAAUGUGGCUGUGGAUAGACUGCC [C8A C23U A26U C37A] belongs 0; to GGCAGAGAGGAACACAGCGUGGCAAUGGGACUGUGGCUAGACUGCC [C8A U9G C10G A26U U28G G30A], 0.02.
For GGCAGAGAUCAACACAGCGUGGCAAAGUGGUUGUGGCUAGACUGCA [C8A C31U C46A], the self-cleavage came out at 0.2.
For GGCAGAGAUCAACACAGCGUGACAAAGUGGCUGUAGCUAGACUGCC [C8A G22A G35A], the self-cleavage was found to be 0.44.
To GGCAGAGAUCAACACAGGGUGGCAAAGUCCCUGUGGCCAAACUGCC [C8A C18G G29C G30C U38C G40A] belongs 0.03; to GGCAGAGAUCAACACAGCGUGGCAAAUUGGCAGUGGCUAUACUGCG [C8A G27U U32A G40U C46G], 0.09.
Regarding GGCAGAGAUCAACACAGCGUGGCAAACUGGUUCUGGCUUGACUGCC [C8A G27C C31U G33C A39U], the self-cleavage turned out to be 0.03.
To GGCAGAGAUCAACACAGCGUGGCAAAGUGGCAGGGGCUAGACUGCC [C8A U32A U34G] belongs 0.14.
To GGCAGAGAUCAACACAUCGUGGCAAAGUGGCUGUGGCGAGACUGCC [C8A G17U U38G] belongs 0.04; to GGCAGAGAUCAACACAUCGUGGCAAAGUGGCUGUGGCAAGACUGCC [C8A G17U U38A], 0.11.
As to GGCAGAGGUCAACCCAGCGUGGCAAAGUGACUGUGGCUAGAAUGCC [C8G A14C G30A C42A], the self-cleavage came to 0.06.
To GGCAGAGAUCAACACAGCGUGACAAAGGGGCUGUGGCUAGACUGCC [C8A G22A U28G] belongs 0.06; to GGCAGAGAUCAACACAGCGUGACAAAGGGGCUGUGGCUUGACUCCC [C8A G22A U28G A39U G44C], 0.03.
Regarding GGCAGAGACCAACACAGCGUGACAAAGUGGCUGGGGCUAGACUGCC [C8A U9C G22A U34G], the self-cleavage was 0.03.
As to GGCAGAGAACAACACAGAGUGUCAAAGUUCCUGUGGCUAGACUUCC [C8A U9A C18A G22U G29U G30C G44U], the self-cleavage was determined as 0.18.
For GGCAGAGGUCAGCACAGCGUGGCUAAGUGGCUGUGGCUAUACUGCC [C8G A12G A24U G40U] the value was 0; for GGCAGAGAUCAACACAGCGUGGCAAAGCGGCUGUGGCUAGACCGCC [C8A U28C U43C], 0.18; for GGCAGAGAUCAACACAGCGUGGAAAAGUGGCUGUGGCUAGACUGUC [C8A C23A C45U], 0.22.
To GGCAGAGGUCAUCACACCGUGGCAAAGUGGCUGUGGCUAGACUGCC [C8G A12U G17C] belongs 0.05; to GGCAGAGGUCCACACAGCGUGGCAAAGUGGCUGUAGCUAGACUGCC [C8G A11C G35A], 0.04; to GGCAGAGAUCAACACAGCGUGGCAAAGUUGCUGUGUCUAGUCUGCC [C8A G29U G36U A41U], 0.05.
Regarding GGCAGAGGUCGACACAGCGUGGCAAAGUAGCUGCGGCUCUACUGCC [C8G A11G G29A U34C A39C G40U], the self-cleavage amounted to 0.
For the variant GGCAGAGAUCAACACAGCCCGGCAAAGUGGCUGUGGCUAGACUGCC [C8A G19C U20C], the self-cleavage was determined as 0.04.
For GGCAGAGAUCAACACAGCGUGGGAAAGUGGCUGUGGCUAGAUUGCC [C8A C23G C42U] the value was 0.16; for GGCAGAGGUCCACACAGCGUGGAAAAGUGGCUGUGGCUAGACUGCC [C8G A11C C23A], 0.02; for GGCAGAGAUCAACACAGCGAGUCAAAGUGGCUGUGACUAGACUGCC [C8A U20A G22U G36A], 0.3.
Turning to GGCAGAGAUCAACACAGCGUUGCAAAGUGGCUGUGUCUAGACUGCA [C8A G21U G36U C46A], the self-cleavage is 0.14.
Take GGCAGAGAUCAACACAGCGCUGCAAAGUGGCAGUGGCUAGACUGCC [C8A U20C G21U U32A]: the self-cleavage came to 0.13.
On to GGCAGAGAACAACACUGCGUGGCAAGGUGGCUUUGGCUGGACUGCC [C8A U9A A16U A26G G33U A39G], for which the self-cleavage amounted to 0.05.
As to GGCAGAGAUCAACACAGCGUGGCAAAGUGGCUGUCGCAAGACAGCC [C8A G35C U38A U43A], the self-cleavage was found to be 0.15.
To GGCAGAGGUCAACUCAGCGUGGCAAAGUGGCUGUUGCUAGACUGCC [C8G A14U G35U] belongs 0.05.
With GGCAGAGGUCACCACAGCGUAGCAAAGUGGCUGGGGCUAGACUGCC [C8G A12C G21A U34G], the self-cleavage amounted to 0.03.
For GGCAGAGAUCAACACAGGGUGACAAAGUGGCUGUGCCUAUACUGCC [C8A C18G G22A G36C G40U] the value was 0.04; for GGCAGAGAUCAACACAGCGUGGUAAAGUGGCCGUGGCUAGACUGCC [C8A C23U U32C], 0.33.
For GGCAGAGAUCAACACAGCAUGGUAAAGUGUCUGAGGCUAGGCUGCC [C8A G19A C23U G30U U34A A41G] the value was 0.1.
On to GGCAGAGAUCAACACAGCGCGGCUAAGUGGCUGUGGCUAGACUGCC [C8A U20C A24U], for which the self-cleavage was determined as 0.12.
For GGCAGAGAUCAACACAGCCUGGCAAAGUAGCUGUGGCUAGACUGCC [C8A G19C G29A] the value was 0.17.
For GGCAGAGGUCAACCCAGCGUGGUAAAGUGGCUGUUGCUAGACUGCC [C8G A14C C23U G35U] the value was 0.07.
For GGCAGAGAUCAACACAGCGUGGCAAAGUGGGUGUGGCUGGACUGCC [C8A C31G A39G] the value was 0.01; for GGCAGAGAGCAACACAGCGUGGAAAAGUGGCUGUGGCUAUACUGCC [C8A U9G C23A G40U], 0.03.
As for GGCAGAGAUCAACACAGCGCGGCAAAGUGGCUGUGGCUAGACUGUC [C8A U20C C45U], the self-cleavage amounted to 0.22.
To GGCAGAGGUCAACUCAGCGUGGCAAAGUGUCUGUGACCAGACUGCC [C8G A14U G30U G36A U38C] belongs 0.03.

For the origin of these results see the RNAGym collection of RNA variant scans (doi:10.7554/elife.90254).
